PubChem BioAssay AID485294 (National Center for Advancing Translational Sciences (NCATS), 2010)
About 150 (0.041%) of roughly 370,000 compounds were called active. Inconclusive means that the source gave no clear call. Such entries were picked first, then a sample of the others. Calls come from the whole dose curve; as a rule, active = well fitted inhibition curve with a large enough effect; inconclusive = small, poorly fitted or top-dose-only effect; inactive = flat fitted curve, though single readings scatter. Potencies of inconclusive entries are left out as doubtful fits.

Molecular target: Beta-lactamase (Escherichia coli (strain K12)) (UniProt P00811)
Chain of UniProt P00811 (P00811 whole entry, looked up): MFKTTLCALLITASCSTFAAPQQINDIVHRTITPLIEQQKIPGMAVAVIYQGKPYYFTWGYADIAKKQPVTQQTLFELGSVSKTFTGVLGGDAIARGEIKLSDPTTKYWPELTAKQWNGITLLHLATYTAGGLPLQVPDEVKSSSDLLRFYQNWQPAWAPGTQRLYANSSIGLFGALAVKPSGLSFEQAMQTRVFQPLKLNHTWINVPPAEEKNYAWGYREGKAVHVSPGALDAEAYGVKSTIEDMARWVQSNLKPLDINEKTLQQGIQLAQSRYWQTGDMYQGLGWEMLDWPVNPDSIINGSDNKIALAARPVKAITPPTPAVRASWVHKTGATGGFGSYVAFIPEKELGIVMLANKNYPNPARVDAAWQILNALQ
Assay: qHTS Inhibitors of AmpC Beta-Lactamase (assay with detergent); note: nearly all actives have a fitted effect of over 25% in size
Conditions: AmpC hydrolysis of nitrocefin, absorbance 480 nm, 0.01% Triton; series mostly up to 114 µM
Procedure, shortened: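 20 mM phosphate pH 7.0 + 0.01% (detergent screen) or 0.0001% Triton X-100; 5.3 nM AmpC reagent; cpd preinc 15 min RT; nitrocefin (800 uM stock) to start; A480 q20 s × 4 min; Activity was normalised to no-enzyme and no-compound control wells.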
Potency is the fitted concentration of half-maximal effect; tags give direction and shape of the fitted curve.

Compound	Potency
C/C(=N/NC(=O)c1ccc(Br)s1)c1cccnc1	inconclusive [inhibitor, full curve]
O=C(c1ccccc1)N1c2nc(-c3ccco3)nn2C2(CCCCC2)[C@@H]2CCCC[C@@H]21	inactive
CC(=O)Nc1cc[n+](CC(=O)c2cccc([N+](=O)[O-])c2)cc1	inconclusive [inhibitor, full curve]
COC(=O)c1ccc(OCCOc2ccccc2C)cc1	inactive
CCOc1ccc(N(CC(=O)NCc2cccnc2)S(=O)(=O)c2ccc(F)cc2)cc1	inactive
Cc1ccc(-c2nc(CS(=O)CC(=O)NCc3ccccc3)c(C)o2)cc1 (stereo not drawn)	inconclusive [inhibitor, full curve, poor fit]
CCn1c(=O)cc(SCC(=O)NCC2CCCO2)c2ccccc21 (stereo not drawn)	inconclusive [inhibitor, full curve, poor fit]
O=C(NC1CCCC1)C(c1ccc(N2CCOCC2)cc1)N(Cc1ccccc1)C(=O)c1ccco1 (stereo not drawn)	inconclusive [inhibitor, partial curve, poor fit]
Cc1ccc2c(c1)c1cccc3c1n2CCN3CCC(N)=O	inactive
CCOc1ccccc1NC(=O)C(=O)Nc1ccc2nc3n(c(=O)c2c1)CCCCC3	inactive
CC(=O)C1=C(O)C(=O)N(CCN2CCOCC2)C1c1ccccc1 (stereo not drawn)	inactive
Cc1ccc(S(=O)(=O)N2CCN(C(=O)Cn3c(=O)cnc4ccccc43)CC2)cc1	inconclusive [inhibitor, full curve, poor fit]
C#CC[N+]1(CC#Cc2ccccc2)CCOCC1	inconclusive [inhibitor, partial curve]
O=C(CCNC(=O)c1ccc(Cl)cc1)NCC(c1ccco1)N1CCCCC1 (stereo not drawn)	inactive
O=C(Nc1ccc(Cl)cc1)N1CCCN(Cc2ccccc2F)C1	inconclusive [inhibitor, full curve, poor fit]
Cc1ccc2nc(-c3ccccc3)c(CN3CCSCC3)n2c1	inconclusive [inhibitor, single point]
C/C(=N\Nc1cccc(C(=O)O)c1)c1ccc(Cl)s1	inconclusive [inhibitor, full curve, poor fit]
COc1ccc(C(=O)Nc2ccc(S(=O)(=O)Nc3onc(C)c3C)cc2)cc1	inconclusive [inhibitor, partial curve, poor fit]
CCOc1ccc(N/C(C)=C/C(=O)c2ccc3c(c2)OCCO3)cc1	inactive
Cc1ccc(S(=O)(=O)N(C)C)cc1NC(=O)COC(=O)c1ccc2c(c1)OCO2	inconclusive [inhibitor, full curve, poor fit]
O=C(NC1(C(F)(F)F)C(=O)Nc2c1c(=O)[nH]c(=O)n2-c1ccc(F)cc1)c1cccnc1 (stereo not drawn)	inconclusive [inhibitor, full curve, poor fit]
Cc1ccc(CN2CC(C(=O)N3CCN(S(=O)(=O)c4ccc(C(C)C)cc4)CC3)CC2=O)cc1 (stereo not drawn)	inconclusive [inhibitor, full curve, poor fit]
CCn1c(NC(=O)c2ccc(COc3ccc(C)cc3[N+](=O)[O-])o2)nc2ccccc21	inactive

Compound	Potency
Cc1ccc(C)c(N(C(=O)CNC(=O)c2ccco2)C(C(=O)NC2CCCC2)c2ccncc2)c1 (stereo not drawn)	inconclusive [inhibitor, single point]
Cn1nc(CC(=O)Nc2ccc(N3CCN(C(=O)OC(C)(C)C)CC3)cc2)c2ccccc2c1=O	inconclusive [inhibitor, full curve, poor fit]
O=C(Oc1c(-c2ccccc2)c(=O)n2c3c(cccc13)CC2)c1cccc([N+](=O)[O-])c1	inconclusive [inhibitor, single point]
CC(C)CCn1c(=O)c(C(=O)Nc2ccccc2S(N)(=O)=O)c(O)c2ccccc21	inactive
Cc1ccc(-c2cc(C(=O)N/N=C/c3c(C)nn(C)c3C)c3ccccc3n2)cc1C	inconclusive [inhibitor, partial curve]
CCC(=O)c1cn(CC(=O)Nc2ccc(OC)cc2)c2ccccc12	inconclusive [inhibitor, full curve, poor fit]
Cc1cc(=O)oc2c3c(cc(OCC(=O)NCc4ccco4)c12)OC(C)(C)CC3	inconclusive [inhibitor, full curve, poor fit]
CCOC(=O)c1ccc(OC)c(OC)c1Cl	inconclusive [inhibitor, single point]
NC(=S)NC(=O)c1ccccc1	inconclusive [inhibitor, single point]
CCCCn1nc(C(=O)NCC(=O)Nc2c(C)cccc2C)c2ccccc2c1=O	inconclusive [inhibitor, full curve, poor fit]
O=C(NC1(C(F)(F)F)N=C2SCCN2C1=O)C1CCCCC1 (stereo not drawn)	inconclusive [inhibitor, partial curve, poor fit]
O=S(=O)(NC1CC1)c1ccc(S(=O)(=O)N2CCCC3(CCCCC3)C2)cc1	inconclusive [inhibitor, full curve]
COc1cccc(/C=N/NC(=O)CCCc2ccc(OC)c(C)c2)c1	inconclusive [inhibitor, partial curve]
Cc1ccc2c(=O)cc(C(=O)Nc3c(C)n(C)n(-c4ccccc4)c3=O)oc2c1	inactive
COc1ccc2c(c1)C(=O)C(=O)N2	inconclusive [inhibitor, partial curve, poor fit]
O=C(NC1CCCC1)c1ccc(CN2CCOCC2)cc1	inactive
COc1ccc(NC(=O)/C(Cl)=C(/Cl)S(=O)(=O)Cc2ccc(C)cc2)cn1	inconclusive [inhibitor, full curve]
CCOc1ccc(N2C(=O)/C(=C/c3ccco3)N(C)C2=S)cc1	inactive
O=C(CCSc1nc(-c2ccco2)cc(C(F)(F)F)n1)NCc1cccs1	inactive
O=S(=O)(NC1CCCCC1)c1ccc(S(=O)(=O)N2CCN3CCCC3C2)cc1 (stereo not drawn)	inconclusive [inhibitor, full curve, poor fit]
COc1cccc(Cn2cc(C(=O)c3ccc(Cl)cc3)c(=O)c3ccccc32)c1	inactive
CCn1ncc(/C=N\NC(=O)COc2ccccc2)c1C	inconclusive [inhibitor, partial curve, poor fit]
Clc1ccc(OCc2nc(-c3ccncc3)no2)c(Br)c1	inconclusive [inhibitor, full curve, poor fit]

Compound	Potency
O=C1N[C@@H](Cc2ccccc2)C(=O)N2[C@H]1C[C@]1(Br)c3ccccc3N(S(=O)(=O)c3ccccc3)[C@H]21	inconclusive [inhibitor, single point]
Cc1ccc(-c2csc3ncnc(N4CCN(c5ccccc5O)CC4)c23)cc1	inactive
O=c1cc(O)nc(SCc2ccc(Cl)cc2)[nH]1	inconclusive [inhibitor, single point]
CCc1noc(C)c1C(=O)N1CCCSC1=Nc1ccccc1	inconclusive [inhibitor, full curve, poor fit]
CCOc1ccc(NC(=O)CN(C)C(=O)c2c(C)noc2C)cc1OCC	inconclusive [inhibitor, partial curve]
COc1ccc2c(c1)c1nc3ccccc3nc1n2Cc1ccc(OC(C)C)c(OC)c1	inactive
CCOc1ccc(-n2c(C)nc(O)c2N=Nc2ccccc2)cc1	inactive
Cc1ccccc1OCC(=O)Nc1ccccc1-c1ccccc1	inactive
O=C(CCSCc1ccc(Cl)cc1)NCc1cccs1	inconclusive [inhibitor, single point]
O=C(CNC(=O)c1ccco1)N=Nc1c(O)[nH]c2ccc([N+](=O)[O-])cc12	inconclusive [inhibitor, full curve, poor fit]
COC(=O)c1ccc(CSC(=N)N)o1	inactive
CN1CCN(c2nc3c(c(=O)[nH]c(=O)n3C)n2CC(N)=O)CC1	inconclusive [inhibitor, partial curve]
N#Cc1ccc(C(=O)N(Cc2ccco2)c2c(N)n(Cc3ccccc3)c(=O)[nH]c2=O)cc1	inconclusive [inhibitor, full curve, poor fit]
CCc1ccc(CN(C)CC(=O)Nc2ccc(S(=O)(=O)N3CCOCC3)cc2)cc1	inactive
CCn1ncc(C2=NOC(C(=O)Nc3ccc(C)cc3)C2)c1C (stereo not drawn)	inactive
O=C(Nc1cccc(S(=O)(=O)N2CCOCC2)c1)c1cccc(S(=O)(=O)N2CCCC2)c1	inconclusive [inhibitor, partial curve, poor fit]
Cc1ccc2c(CC(=O)OCC(=O)Nc3ccc(Cl)cn3)coc2c1	inconclusive [inhibitor, partial curve, poor fit]
O=C(CCC(=O)N1CCN(S(=O)(=O)c2ccccc2)CC1)NC1CCCc2ccccc21 (stereo not drawn)	inconclusive [inhibitor, partial curve, poor fit]
COc1cc(CN=C(C)c2c(O)n(C3CCCCC3)c(=O)[nH]c2=O)cc(OC)c1	inactive
COc1ccc(/C=N/NC(=O)Nc2cccc3nsnc23)cc1OC	inactive
COc1ccc2nc3c(cc2c1)c(NC(=O)C1CCCO1)nn3CC(C)C (stereo not drawn)	inconclusive [inhibitor, full curve, poor fit]
Cn1ccnc1SCC(=O)c1ccc([N+](=O)[O-])cc1	inconclusive [inhibitor, partial curve]
